In PubChem BioAssay AID1508623 (National Center for Advancing Translational Sciences (NCATS), 2021):
Screen size: about 48,000 compounds; about 450 (0.94%) were called active. Inconclusive results (about 19%) are left out. The call rests on the fitted dose curve; in most records, active means well fitted inhibition curve with a large enough effect; inconclusive means small, poorly fitted or top-dose-only effect; inactive means no such curve, though single readings can be large or run the other way. Some of the results follow.

assay: Primary qHTS for Identification of Small Molecule Inhibitors of Huntingtin Promoter Activity; settings: HEK293 HTT promoter firefly luciferase reporter (activity 0% = vehicle and -100% = no light), 24 h; series mostly up to 57.5 µM; activity change, negative = inhibition: at the top concentration; further: nearly all actives have a fitted effect of over 50% in size
How it was run: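 HEK293 cells carrying firefly luciferase reporters were seeded at 2,500 per well in Opti-MEM and cultured for 24 h. They were then treated with compounds at up to 57.5 uM final for 24 h at 37 degrees C before Dual-Glo luminescence readout.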

Row | SMILES | activity change, negative = inhibition
1 | COc1ccc(-c2noc(-c3ccc(N4CCC(C)CC4)c([N+](=O)[O-])c3)n2)cc1OC | inactive: -7.56%
2 | COc1ccc(N(CC(=O)N2CCN(c3ccc(F)cc3)CC2)S(=O)(=O)c2c(C)n[nH]c2C)cc1 | inactive: -16.1%
3 | CC(C)(C)c1ccc(C(=O)NC(Cc2c[nH]c3ccccc23)C(=O)OCC(=O)c2ccc(Cl)cc2)cc1 (stereo unspecified) | inactive: -21%
4 | Cc1ccc(CNC(=O)c2cccc(-n3cnc4cccnc43)c2)cc1 | inactive: -20.8%
5 | COc1cccc(C(=O)Nc2c3c(nn2-c2ccc(Cl)cc2)CS(=O)(=O)C3)c1 | inactive: -11.4%
6 | CCc1ccc(NC(=O)CCNS(=O)(=O)c2ccc3c(c2)CCCC(=O)N3)cc1 | inactive: -15.3%
7 | OC(C#CCN1CCCC1)(c1ccccc1)c1ccccc1 | inactive: -2.35%
8 | COC(=O)c1ccccc1NC(=O)c1cc2c(-c3ccc(OC)c(OC)c3)nn(C)c2s1 | inactive: 7.71%
9 | C=CCC(CC=C)(CNC(=O)C(=O)Nc1ccc(C(=O)OCC)cc1)c1ccccc1 | inactive: -17.1%
10 | Cc1ccc(-c2nc3ccccn3c2Nc2ccc3c(c2)OCO3)o1 | inactive: 9.46%
11 | COc1ccc(-c2nn(-c3cccc([N+](=O)[O-])c3)c3c2cnc2cc4c(cc23)OCO4)cc1 | inactive: -27.2%
12 | CCCN(C(=O)c1cc2c(s1)-c1c(C)cccc1OC2)c1ccc(OCC)cc1 | inactive: -5.01%
13 | CC(C)c1ccc(Nc2nc3c(S(=O)(=O)c4ccc(Br)cc4)nnn3c3ccsc23)cc1 | inactive: -17%
14 | CCSc1nnnn1-c1cccc(C(=O)O)c1 | inactive: -1.37%
15 | CCOC(=O)c1cc(-c2ccc(C)cc2)n(CC(=O)NC2CCCCCC2)c1C | inactive: -9.52%
16 | Cc1cc2nc(-c3cccc(NC(=O)CSc4ccc(Cl)cc4)c3)oc2cc1C | inactive: 70.8%
17 | Cc1cccc(-c2c3c(=O)n(C)c(=O)n(C)c3c3cnc4ccccc4n23)c1 | inactive: -6.21% [at 11.5 µM]
18 | Cc1c(NC(=O)Nc2ccc(C#N)cc2)c(=O)n(-c2ccccc2)n1C | inactive: -17.8%
19 | CCC(=O)Nc1sc2c(c1C(=O)Nc1cccc(C)c1)CCCC2 | inactive: -29.2%
20 | COc1ccccc1Nc1nn2c(=O)c3ccc(C(=O)NC(C)c4ccccc4)cc3nc2s1 (stereo unspecified) | inactive: -15.1%
21 | Cc1ccc(NC(=O)Cn2cc(S(=O)(=O)c3ccccc3)c(=O)c3cc4c(cc32)OCO4)cc1 | inactive: -27.7%
22 | Cc1cccc(C(=O)Nc2ccc(OCc3cc(=O)n4c5c(sc4n3)CCCC5)cc2)c1 | inactive: -20.3%
23 | CCCOC(=O)c1ccc(O)cc1 | inactive: 36% [at 116 µM]
24 | Cc1cc(C)c(NC(=O)Cn2nnc(-c3nc(-c4ccccc4)no3)c2N)c(C)c1 | inactive: -8.83%
25 | Cc1cc(C)c2c(n1)SCCN2C(=O)Nc1ccc(C(=O)Nc2ccc(C(C)C)cc2)cc1 | inactive: -42.7%
26 | CCN(CC)c1ccc2cc(-c3nc(-c4cc(OC)c(OC)c(OC)c4)no3)c(=O)oc2c1 | inactive: 2.91%
